Reference: patent US10905774B2, “Nanocage and use thereof” (KOREA INSTITUTE OF SCIENCE AND TECHNOLOGY, priority 2016, dated 2021)

Columns and labels:
[1] = test system: HT29 human colon cancer cells; assay: Flow cytometry of nanocage binding to HT29 cancer cells; type: cell-based; conditions: 20, 200, 400 or 600 nM
Procedure: In order to confirm the affinity of cancer cells for nanocages produced using various SIRP proteins prepared in Examples 1-2 to 1-5, respectively in addition to the nanocage prepared in Example 1-1, flow cytometry was performed. Particularly, HT29 human colon cancer cells were seeded into 2×10^5 cells/ml and the wild-type ferritin heavy chain nanocage as a control group, the FH-SIRPα HV nanocage prepared in Example 1-1, the FH-hSIRPα WT nanocage prepared in Example 1, the FH-SIRPγ WT nanocage prepared in Example 1-3 and the FH-SIRPγ V2 nanocage prepared in Example 1-5 were treated at the concentration of 20, 200, 400 or 600 nM, respectively, and the degree of cell binding was measured. Particularly, after treating anti-ferritin heavy chain primary antibody (Abcam, Cambridge, UK, 1:200) and an Alexafluor 488-conjugated donkey anti-rabbit secondary antibody (Jackson ImmunoResearch, Suffolk, UK, 1:400), the cells were sorted according to fluorescence intensity through flow cytometry analysis.

[2] = test system: CT26.CL25 mouse colon cancer cells; assay: Phagocytosis rate of CT26.CL25 cells by bone marrow-derived macrophages (counting phagocytized cells); type: cell-based; conditions: BMDMs cocultured with CT26.CL25 at 37° C. for 4 hours
Procedure: After the staining, phagocytosis rate of macrophages against cancer cells were determined by counting phagocytized cancer cells by the macrophages.

CT26.CL25 cancer cells [3] = assay: In vivo cancer growth inhibition, intratumoral nanocages; set-up: species or system Balb/c wild-type mice; conditions: CT26.CL25 subcutaneous; intratumoral 28 mg/kg
Procedure: (§1) The antitumor activities of the ferritin heavy chain nanocage prepared in Examples 1-1 to 1-5 and the doxorubicin nanocage complex prepared in Example 3 were examined. Particularly, Balb/c wild type mice were used as the experimental animals, and experiments on the above experimental animals were carried out according to the regulations of the KIST animal ethics committee.
First, in order to measure the in vivo anticancer activity of the various ferritin heavy chain nanocages prepared in Examples 1-1 to 1-5, 1×10^6 cells of CT26.CL25 cancer cells expressing β-galactosidase were subcutaneously injected on the left side of Balb/c wild-type mice in order to induce cancer and then each experimental substance (buffer only, FH-mSIRPα WT, FH-SIRPα HV, FH-SIRPγ WT and FH-SIRPγ V2) was injected intratumorally at dose of 28 mg/kg) after 5 day of tumor inoculation, and the length (L) and the width (W) of the tumor tissues were measured using a caliper at intervals of 3 days (FIG. 7A), and then the volume of tumor tissue was calculated using the following formula: Tumor tissue volume (V [mm^3])=(L [mm])×(W [mm])^2×0.5

[4] = test system: CD47 on the surface of cancer cells (CT26 mouse and HT29 human colorectal cancer cell lines); assay: Fluorescence microscopy of nanocage binding to cancer cells; type: cell-based; conditions: 400 nM
Procedure: (§2) The present inventors performed fluorescence microscopy to confirm whether the FH-SIRPα HV nanocage prepared in Example 1 specifically binds to CD47 on the surface of cancer cells. Specifically, CT26 mouse colorectal cancer cell line and HT29 human colorectal cancer cell line were inoculated at a concentration of 3×10^4 cells/ml. Then, after treating 400 nM of FH-SIRPα HV nanocage prepared in Example 1-1 or same amount of wild-type ferritin heavy chain nanocage as control group, anti-ferritin primary antibody (Abcam, Cambridge, UK) and FITC-conjugated anti-mouse rabbit secondary antibody (Jackson ImmunoResearch, Suffolk, UK) were treated and then fluorescence microscopic images were obtained. […] The affinities and kinetics of FH-SIRP α HV nanocage binding human or mouse CD47 were analyzed by surface plasmon resonance (SPR) analysis and the results are shown in Table 1 below.

[5] = test system: interferon-gamma (INF-γ) of T cells specific to CT26.CL25 antigens; assay: Antigen-induced INF-γ of splenocytes (ELISA); type: in vivo, mouse; conditions: splenocytes of treated animals, β-Gal peptide or AH1 peptide 5 μg/ml, 24 hours
From the text: The present inventors investigated the cellular immunity against CT26.CL25 cancer cells in mouse spleen by doxorubicin-loaded FH-SIRPα HV nanocage complex in order to confirm whether the above-described immune response was cancer cell-specific. That is, the level of interferon-gamma (INF-γ) of T cells specific to β-galactosidase, an antigen of CT26.CL25, was quantified by ELISA (R&D Systems, Inc., USA). Three mice per group were selected from the mice treated in the same manner as in Experimental Example 3-1, the spleen was removed from each mouse, the spleen tissue was transferred to a sterilized petri dish, and the spleen tissue was ground using a cell strainer. And then cells were separated from the tissue epithelium. All the contents in the Petri dish were transferred to a 15 ml tube, filled with RPMI 1640 medium, centrifuged at 1,500 rpm for 5 minutes. After removing supernatant, red blood cells lysis buffer (Sigma-Aldrich, Germany) were added to pellet in order to hemolyze red blood cells. Cells contained in the tubes were washed with PBS and then suspended in RPMI 1640 medium to isolate splenocytes. […] The supernatant was then separated and level of INF-γ was quantified by ELISA (R&D Systems, Inc, USA).

[6] = test system: Raji, HT-29, 4T1, CT26 and CT26.CL25 cancer cells co-cultured with BMDMs; assay: Phagocytosis of cancer cells by bone marrow-derived macrophages (FACS); type: cell-based, human, mouse; conditions: 400 nM
From the text: (§3) Particularly, the present inventors observed the phagocytic action of macrophages and dendritic cells against tumor cells through FACS analysis. First, 3×10^5 cells/ml of bone marrow-derived macrophages (BMDMs) pre-stained with CellTracker Green (Thermo Fisher Scientific, USA) and (a) 1.25×10^6 cells/ml of human Raji Burkitt lymphoma cells, (b) human HT-29 colorectal cancer cells, (c) mouse 4T1 breast cancer cells, (d) mouse CT26 colorectal cancer cells and (e) mouse CT26.CL25 colorectal cancer cells overexpressing β-galactosidase pre-stained with pHrodo Red SE, respectively were seeded in RPMI medium and buffer only (control), the ferritin-SIRPα fusion nanocage (FH-SIRPα HV) of the present invention, the wild-type ferritin heavy chain nanocage (wtFH) and the monomeric SIRPα (mSIRPα) were treated at the concentration of 400 nM, respectively. […] The phagocytosis rate was determined by the following formula. […]

Mouse CD47 = molecular target: T1, Mouse CD47 (Mus musculus, UniProt Q61735); assay: Surface plasmon resonance (SPR) analysis of affinities and kinetics of binding to mouse CD47
T1 sequence (Q61735 19-303): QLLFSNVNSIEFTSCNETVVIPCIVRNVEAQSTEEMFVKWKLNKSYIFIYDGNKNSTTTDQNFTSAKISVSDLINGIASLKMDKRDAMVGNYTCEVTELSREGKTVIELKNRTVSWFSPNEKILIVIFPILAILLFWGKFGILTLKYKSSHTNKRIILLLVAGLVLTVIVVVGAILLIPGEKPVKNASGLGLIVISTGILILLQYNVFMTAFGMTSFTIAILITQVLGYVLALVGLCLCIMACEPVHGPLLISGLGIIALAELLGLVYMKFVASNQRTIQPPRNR
Procedure: as §2

[7] = test system: secondary cancer transplanted to other site; assay: Anticancer memory effect: secondary tumor rechallenge and survival; type: in vivo, mice; conditions: after 80 days of tumor rechallenge
From the text: The present inventors have hypothesized that the effect of FH-SIRPα nanocage according to an embodiment of the present invention is due to the recruiting of immune cells from the results of Experimental Example 3. Thus, the present inventors analyze growth of secondary cancer transplanted to other site and counted survival rate of the experimental animals after excising primary tumor tissues from the experimental animals.

[8] = test system: Raji, HT-29, 4T1, CT26 and CT26.CL25 cancer cells co-cultured with BMDCs; assay: Phagocytosis of cancer cells by bone marrow-derived dendritic cells (FACS); type: cell-based, human, mouse; conditions: 400 nM
From the text: as §3

CT26.CL25 cancer cells [9] = assay: In vivo cancer growth inhibition, tail vein injection of doxorubicin nanocage complex and comparators; set-up: species or system Balb/c wild-type mice; conditions: tail vein 1 mg/kg, five injections at interval of 3 days
Procedure: as §1
In addition, the present inventors investigated the in vivo anticancer activity of the doxorubicin-encapsulated nanocage complex prepared in Example 3 above. Particularly, 1×10^6 cells of CT26.CL25 cancer cells were subcutaneously injected into the above Balb/c wild-type mice to induce cancer. […] Further, the volume of the tumor tissue over time before the sacrifice of the experimental animals was recorded from 7 days after the injection of cancer cells at the interval of 3 days by calculating using the following formula after measuring length (L) and width (W) of tumor tissues using a caliper: Tumor tissue volume (V [mm^3])=(L [mm])×(W [mm])^2×0.5

[10] = molecular target: Human CD47 (Homo sapiens); assay: Surface plasmon resonance (SPR) analysis of affinities and kinetics of binding to human CD47
Procedure: as §2

HT29 cells per BMDM cell = assay: Phagocytosis index (PI) by microscopic observation; type: cell-based, human; conditions: number of cancer cells per BMDM cell, microscopy
From the text: In addition, the phagocytosis rate of cancer cells by bone marrow-derived macrophages (BMDMs) was quantitated as a phagocytosis index (PI) expressed as a percentage by counting the number of cancer cells per BMDM cell by microscopic observation.

[11] = CT26.CL25 cells overexpressing β-galactosidase

B1: FH-SIRPγ V2 nanocage: Ferritin heavy chain nanocage of fusion protein with SIRPγ HV2 (SEQ ID NO: 100), 27th amino acid not substituted (protein)
chain: [about 200 residues not written out]KESGSVSSEQLAQFRSLDEEELQIIQPEKLLLVTVGKTATLHCTVTSLFPVGPVLWFRGVGPGRVLIYNQRQGPFPRVTTVSDTTKRNNMDFSIRISSITPADVGTYYCIKFRKGSPENVEFKSGPGTEMALGAKP
Q: B1 was tested. Which “degree of cell binding” value [1] did it give?
A: equivalent to the performance of SIRPα HV nanocage

Q: And the “phagocytic activity against cancer cells” value [2]?
A: higher phagocytosis activity against cancer cells

Q: And the “antitumor activity (tumor growth)” value (CT26.CL25 cancer cells [3])?
A: very good antitumor activity

B2: FH-SIRPα HV: Nanocage self-assembled from fusion of human ferritin heavy chain (SEQ ID NO: 1), linker and SIRPα high-affinity variant (SEQ ID NO: 12) (protein)
chain: [about 200 residues not written out]KESGSVSSEQLAQFRSLDEEELQIIQPDKSVLVAAGETATLRCTITSLFPVGPIQWFRGAGPGRVLIYNQRQGPFPRVTTVSDTTKRNNMDFSIRIGNITPADAGTYYCIKFRKGSPDDVEFKSGAGTELSVRAKP
Q: What does the source list for B2?
A: binding to cancer cells (FITC fluorescence) [4]: binds well to cancer cells; expression of IFN-γ [5]: increased significantly; phagocytosis of CT26.CL25 cells by macrophages compared with recombinant SIRPα [6, 11]: nearly doubled; phagocytosis of cancer cells by macrophages (BMDMs) ([6]; compared with control group): significantly increased; ka (Mouse CD47): 1.1e+06 M⁻¹ s⁻¹; kd (Mouse CD47): 0.00041 s⁻¹; survival rate [7]: 80%; phagocytosis of CT26.CL25 cells by dendritic cells compared with recombinant SIRPα [8, 11]: remarkably increased; phagocytosis of cancer cells by dendritic cells (BMDCs) ([8]; compared with control group): significantly increased; anticancer effect (growth of cancer cells) (CT26.CL25 cancer cells [9]): excellent anticancer activity; antitumor activity (tumor growth) (CT26.CL25 cancer cells [3]): very good antitumor activity; ka [10]: 5e+06 M⁻¹ s⁻¹; kd [10]: 2.4e-07 s⁻¹; phagocytosis index (PI) (HT29 cells per BMDM cell): significantly higher than recombinant SIRPα
